# About 4,200 (1.3%) of roughly 330,000 compounds were called active. The inconclusive results got no clear call from the source; some entries with a clear call stand among them for comparison. Calls come from the whole dose curve; as a rule, active = well fitted activation curve with a large enough effect; inconclusive = small, poorly fitted or top-dose-only effect; inactive = no such curve, though single readings can be large or run the other way. Potencies of inconclusive entries are doubtful fits and often do not repeat.
# Test: qHTS screen for small molecules that induce genotoxicity in human embryonic kidney (HEK293T) cells expressing luciferase-tagged ELG1; note: nearly all actives have a fitted effect of over 60% in size; for activity change, positive = activation: % of control where 0% means no effect
# Conditions: HEK293T ELG1-luciferase reporter, luminescence, 16 h; series mostly up to 46 µM; activity change, positive = activation: at the top concentration
# Procedure, shortened: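 DMSO vehicle served as control against compound-treated ELG1-luciferase HEK293T cells; exposure lasted 16 hr at 37 °C and 5% CO2, followed by ONE-Glo luminescence detection after 30 min.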
# Potency is the fitted concentration of half-maximal effect; tags give direction and shape of the fitted curve.
Compound,"activity change, positive = activation",Potency
O=C(CSc1cn[nH]n1)Nc1ccc(Cl)cc1Cl,inactive: 0.626%,
COC(=O)c1ccc(COc2ccccc2/C=C(\C#N)C(=O)NC(C)C)cc1,inactive: 14.8%,
O=C(O)c1ccc(-c2ccc(-c3ccccc3)cc2)s1,,"inconclusive: 0.58 µM [activator, partial curve, poor fit]"
CC(=O)Nc1ccc(NC(=O)CCSCCc2ccccn2)cc1,inactive: 0.0749%,
COc1ccc(NC(=O)CSc2nnc(NC(=O)c3ccccc3C(=O)O)s2)cc1,inactive: -1.81%,
Cc1ccc(C(=O)Nc2cccc(Oc3ccccc3)c2)o1,,"inconclusive: 13 µM [activator, partial curve]"
Cc1ccsc1C(=O)NCCc1c[nH]c2ccccc12,,"inconclusive: 9.2 µM [activator, partial curve]"
CCC1(c2ccc(OC)cc2)NC(=O)N(CC(=O)NC2CCCCC2C)C1=O (stereo not drawn),inactive: 4.92%,
Nc1nc(-c2cc(-c3ccccc3)no2)cs1,,active: 2.06 µM
O=C(Nc1cccnc1)c1cc(-c2ccc(F)cc2)on1,inactive: 9.7%,
Cc1nc2ccc(NC(=O)Cc3ccsc3)cc2s1,,active: 11.6 µM
NS(=O)(=O)c1ccc(NCC2COc3ccccc3O2)c([N+](=O)[O-])c1 (stereo not drawn),inactive: 3.98%,
Cc1nc(NC(=O)c2ccc(Br)s2)sc1C(=O)N(C)C,,active: 9.2 µM
CCOc1ccc(-c2nnc(-c3ccco3)o2)cc1,,"inconclusive: 0.92 µM [activator, partial curve]"
COc1ccc(OCc2nc3ccccc3[nH]2)cc1,,active: 1.84 µM
CS(=O)(=O)c1ccc(C(=O)OCC(=O)NC23CC4CC(CC(C4)C2)C3)cc1[N+](=O)[O-],,"inconclusive: 20.6 µM [activator, single point]"
CC1CCc2c(sc(NC(=O)C(=O)NCc3ccco3)c2C#N)C1 (stereo not drawn),inactive: 4.13%,
Cc1ccc(NNC(=O)c2snnc2C)cc1Cl,inactive: 4.08%,
COc1ccc(NC(=O)Nc2nccs2)cc1,,"inconclusive: 2.59 µM [activator, partial curve]"
Cc1ccc2nc(Cc3ccc(N)cc3)oc2c1,,active: 11.6 µM
O=C(c1cc2c(=O)n3ccccc3nc2s1)N1CCOCC1,,active: 4.11 µM
O=c1[nH]c(CCl)nc2cc(-c3ccc(Cl)cc3)sc12,,"inconclusive: 2.51 µM [activator, partial curve, poor fit]"
Cc1nc(SCc2ccc(Br)cc2)[nH]c(=O)c1C,,"inconclusive: 16.4 µM [activator, partial curve]"
O=C(CCN1C(=O)/C(=C/c2ccc3c(c2)OCO3)SC1=S)Nc1ccccc1,,"inconclusive: 20.6 µM [activator, single point]"
Cc1nn(-c2ccccc2)c(Cl)c1/C=N/Nc1nc2ccccc2[nH]1,,active: 2.59 µM
CCc1nnc(NC(=O)c2sc3nc4c(cc3c2N)CCCCCC4)s1,,"inconclusive: 18.4 µM [activator, single point]"
Cc1ccc(S(=O)(=O)NCC(=O)N(CC(=O)NCc2ccco2)Cc2ccc3c(c2)OCO3)cc1,inactive: 5.8%,

Compound,"activity change, positive = activation",Potency
Cc1cc(NC(=O)CSc2nc3c(cc2C#N)CCC3)no1,,active: 4.11 µM
CC(=O)c1ccc(NC(=O)Nc2ccc3c(c2)nc(C)n3C)cc1,,"inconclusive: 23.1 µM [activator, single point]"
CCOC(=O)c1c(C)nc2c(c1-c1ccc(Cl)cc1)C(=O)CC(C)(C)C2,inactive: -4.51%,
COc1cc(NC(=O)CN2c3ccccc3CC2C)cc(OC)c1OC (stereo not drawn),inactive: 0.174%,
CC(=O)Nc1ccc(N=NN2CCOCC2)cc1,,"inconclusive: 29.1 µM [activator, single point]"
O=C(NC(=S)NC1CCCCC1)c1ccc(F)cc1,,"inconclusive: 20.6 µM [activator, single point]"
COc1ccc(C(=O)N/C(=C/c2ccco2)C(=O)NCc2ccco2)cc1,inactive: 1.94%,
Cc1nc(SCC(=O)N2CCc3ccccc32)n[nH]1,,"inconclusive: 18.4 µM [activator, single point]"
CCCCOC(=O)C1[C@H]2C(=O)N(CCc3ccccc3)C[C@]23C=C[C@H]1O3 (stereo partly drawn),,"inconclusive: 29.1 µM [activator, partial curve, poor fit]"
Cc1nc(N)sc1N=Nc1ccc(Br)cc1,,"inconclusive: 8.2 µM [activator, single point]"
O=C(Nc1ccccc1C(F)(F)F)c1cc(-c2ccco2)on1,,"inconclusive: 18.3 µM [activator, single point]"
Cc1ccccc1-c1noc(-c2ccc(Cl)cc2)n1,,"inconclusive: 9.2 µM [activator, partial curve, poor fit]"
COC(=O)c1cn[nH]c1NC(=S)Nc1ccc(C)cc1Cl,,active: 0.58 µM
O=C(CSc1cccs1)Nc1ccc(Cl)cc1,,"inconclusive: 18.3 µM [activator, partial curve, poor fit]"
Cc1cccc(OCC(=O)N2CCN(C(=O)COc3ccc(Cl)cc3)CC2)c1,inactive: -23.8%,
COc1ccc(C(=O)Nc2ccc(N3CCN(C(=O)c4cccs4)CC3)cc2)cc1Br,inactive: -14.4%,
CCOC(=O)c1c(NC(=S)Nc2ccc(Cl)cc2)sc(C)c1C,inactive: 5.23%,
CCn1cc(Br)c(C(=O)Nc2ccc(F)c(Cl)c2)n1,,"inconclusive: 20.6 µM [activator, partial curve, poor fit]"
O=C(O)CN1C(=O)/C(=C/c2ccccc2Br)Oc2ccccc21,inactive: -1.28%,
O=C(N/C(=C/c1cccs1)c1nc2ccccc2[nH]1)c1ccccc1,inactive: 1.2%,
O=C(COC(=O)Cc1ccccc1[N+](=O)[O-])NNC(=O)c1ccc([N+](=O)[O-])cc1,inactive: 1.61%,
CC(C)CCn1cnc2c(NCc3ccccc3)ncnc21,,"inconclusive: 9.2 µM [activator, partial curve]"
CC(C)c1ccc2oc(-c3ccc(NC(=O)c4ncn[nH]4)cc3)nc2c1,,active: 9.2 µM
O=c1c2c3c(sc2nc2sc(C4CC4)nn12)CCCC3,,active: 5.8 µM
CN(C)C1=NCCN1CCc1cccc(F)c1,inactive: 2.41%,
CC(C)NC(=O)c1[nH]nc2c1CCc1ccccc1-2,,"inconclusive: 13 µM [activator, partial curve, poor fit]"

# — PubChem BioAssay AID504466 (National Center for Advancing Translational Sciences (NCATS), 2011)
